The source gives no read counts; variants with many changes may rest on few reads.
B1: LINE1-mini (parent)
chain: GGCAGAGCUCAACACAGCGUGGCAAAGUGGCUGUGGCUAGACUGCC

Variants of: B1
Assay: self-cleavage, relative activity (ratio to wild type); higher = more cleavage; in vitro, sequencing; the parent is a self-cleaving ribozyme

Row | Variant | self-cleavage
1 | GGCAGAGCUAAACACAGCCUGGCAAAGUAGCUGUGGCUAGACUGCC [C10A G19C G29A] | 0.02
2 | GGCAGAGCUCAACACUGCGCGGCAAAGUGGCUGUGGCUAGACUGCU [A16U U20C C46U] | 0.06
3 | GCCAGAACUCAACACAACGUGGCAAAGUGGCUGUGGCUAGACUGCC [G2C G7A G17A] | 0.06
4 | GGCAGCGCUCAACACGGCGUGGCAAAGUGGCUGUGGCUAGACUGGC [A6C A16G C45G] | 0.03
5 | GGCAGAGAUCAACCCAGCGUGGCAAAGUGGGUGUGGCUAGACUGCC [C8A A14C C31G] | 0.07
6 | GGCAGAGGACAACACAGCGUGGCAAAGUGGCUGUGGCUAUACUGCC [C8G U9A G40U] | 0.06
7 | GGCAGAGAUCAACACAGCGUGGAAAAGUGGCUGUGUCUAGACUGCC [C8A C23A G36U] | 0.11
8 | GGCAGAGCUCAACACAUCGUGGCAAAGUGGCUUUGGCUAGGCUGCC [G17U G33U A41G] | 0.06
9 | CUCAGAGGUCAACACAGCGUGGCAAAGUGGCUGUGGCUAUACUGCC [G1C G2U C8G G40U] | 0.12
10 | AGCAGAGCUCAACACAGCGUGGCAAAGUGGCUGUGCCUAUACUGCC [G1A G36C G40U] | 0.13
11 | GGCAGAGCUCAACACACCGUAGCAAAGUUGCUUUCGCUAGACUACC [G17C G21A G29U G33U G35C G44A] | 0.04
12 | GGCAAAGCUCAACACAGCGUGGUAAACUGUCUGUGGCUAGACUGCC [G5A C23U G27C G30U] | 0.15
13 | GGCAAAGCUCAACACAGCGGGGCAAAGUGGCUGUGGCUAGACUGGC [G5A U20G C45G] | 0.02
14 | GGCAGAGUUCGACACAGCGGGGCAAAUUGGCUGUGGCUAGACUCCC [C8U A11G U20G G27U G44C] | 0.02
15 | GGCUGAGAUCAACACAGCGUGGCACAGUGACUGUGGUUAGACUGCC [A4U C8A A25C G30A C37U] | 0.1
16 | GGCAAAGCUCAACACAGCGUGGCAAAGUGGCUGUGGCUAGACCGGC [G5A U43C C45G] | 0.09
17 | GGCAGGGCGUAGCACAGCGUGUCAUGGUGGCUGUGGCUAGACUGCC [A6G U9G C10U A12G G22U A25U A26G] | 0.02
18 | GGCAGCUCUAAACACACCGCGGCAAAGUGACUGUGUCUAGACUGCC [A6C G7U C10A G17C U20C G30A G36U] | 0.03
19 | GGCAGCGCAUAACACAGCGUGGCAAAGUGGCUGUGGCUAGACUGCC [A6C U9A C10U] | 0.03

Row | Variant | self-cleavage
20 | GGCAAAGCUCAACACAGCGUGGCCAAGUGGCUGUGCCUAGACUGCC [G5A A24C G36C] | 0.03
21 | GGCAGAGCUGAACACAGCGUGGCAAAGUGGCUGAGGCUAGCCUGCC [C10G U34A A41C] | 0.01
22 | GGUAGAGCUCAACAAAGCUUGGCAAAUUGGCUGUGGCUAGACUGCC [C3U C15A G19U G27U] | 0.02
23 | GGCAGAGCUCAACACAGCGUUGCUAAGUGGCUGUGCCUAGACUACC [G21U A24U G36C G44A] | 0.09
24 | GGCAGAGUUCAACACAGCGUGGUAAAGUGACUGUGGCUAGAAUGCC [C8U C23U G30A C42A] | 0.03
25 | GGCACAGCUCAACGCAGCGUGGCAAAGUAGCUGUGGCUAGACCGCC [G5C A14G G29A U43C] | 0.02
26 | GGCAGAGCUCAACACAGCGUGGCAAUAUGGCUGUGGCUAGACUGCG [A26U G27A C46G] | 0.07
27 | GGCAGAGCUCAACACAUCGUGGCAAAGUGGCUGUGGCUCGAAUGCC [G17U A39C C42A] | 0.01
28 | GGCAGAGAGCAACACAGCGUUGCAAAGUGGCUGUGGCUAGACUGCU [C8A U9G G21U C46U] | 0.02
29 | GGCAGAGCUCAACACAGGGUGGCAAAGUGCCAGUGGCUAGACUGCC [C18G G30C U32A] | 0.38
30 | GGCAGAACUCAACAGAGCGUGGCAAAGAGGCUCUGGCUAGACUGCC [G7A C15G U28A G33C] | 0.05
31 | GGCAGAGCUCAACACAGCGUGGCACAGUGGCUGAGGCUAGUCUGCC [A25C U34A A41U] | 0.04
32 | GGCAGAGCUCAACAGAGCGUGGCAAAGUGGCUGUGGCUAGACUGGG [C15G C45G C46G] | 0.03
33 | GGCCGAGCUCUACACAACGUGGAAUAGUGGCUCAGGCCAGACUGCA [A4C A11U G17A C23A A25U G33C U34A U38C C46A] | 0
34 | GGCAGUGCUCAACACAGCGUUACAAAGUGGAUGUGGUUAGACUGCC [A6U G21U G22A C31A C37U] | 0.03
35 | GGCAGAGCUCAACACAGCGUGGCAAAGUGUAUGUGGCUAGACUUCG [G30U C31A G44U C46G] | 0.18
36 | GGCAGAGCUCAACGCAGCGUGGCAAAGUGGUUGUGGAUAUACUGCC [A14G C31U C37A G40U] | 0.01
37 | CGCAGAGCUCAGCACAGCGUGGCAAAGUGGCUCUGGCUAGACUGCC [G1C A12G G33C] | 0.01
38 | AACAGAGCUCAACACGGCGUGGCCAAGUGGCUGUGGCUAGACUGCC [G1A G2A A16G A24C] | 1.05

Row | Variant | self-cleavage
39 | GGAAGAGUUCAACACACCGUGGCAAAGUGGCUGUGGCUGGACUGCC [C3A C8U G17C A39G] | 0.03
40 | GGCAGAGCUCAUCACAGCGUUGCAAAGUGGCUGGGGCUAGACUGCC [A12U G21U U34G] | 0.03
41 | GGUCGGGCUCAACACAGCGUGGCAAAGUUGCUGUGGCUAGACUGCC [C3U A4C A6G G29U] | 0.12
42 | GCCAGAGCUCAAAACAGCGUGGCAAAGUGGCUGUGGCUUGACUGCC [G2C C13A A39U] | 0.24
43 | UACAGAGCUCUCCACAGCGUGGCAAAGUGGGUGUGGCUAGACUGCC [G1U G2A A11U A12C C31G] | 0
44 | GGCAGAGCUCAACACAACGUGGGAAAGUGCCUGUGGCUAGACUGCC [G17A C23G G30C] | 0.06
45 | GGCAGAGCUAAACACAGCGUGGGAAAGUGGCAGUGGCUAGACUGCC [C10A C23G U32A] | 0.01
46 | GGCAGAGCUCAACACAGCGUGGCAAAGAGGCUGUGGCUUGACUGCA [U28A A39U C46A] | 1.03
47 | GGAAGAGCUCAACACAGAGUUGCAAAAGGGCUAUGCCUAGACUGCC [C3A C18A G21U G27A U28G G33A G36C] | 0.01
48 | GGCAGAGCUCAACACAACGUGGCGAAGAGGCUGUGGCUAGACUGCC [G17A A24G U28A] | 0.01
49 | GGCAGAGCGCAGCGCAGCGUGGCAAAGUGGCUGUGGCUAGACUGCC [U9G A12G A14G] | 0.05
50 | GACAGAACUCAACACAGCGUGGCAUAGUGGCUGUGGCUAGACUGCC [G2A G7A A25U] | 0.26
51 | GGGAUAGCUCAACACAGGGUGGCAAAGUGGCUGUGGCUAGACUGCC [C3G G5U C18G] | 0.06
52 | GGCCGAGCUCAACACAGUGUGGCAAAGUGGCUGUGGCUAGACUGGC [A4C C18U C45G] | 0.02
53 | GGCAGACCUCAACACUGCGUGGCAAAGUGGCUGUUGCUAGACUGCC [G7C A16U G35U] | 0.09
54 | GGCAGAGCUCAACACAGCGUGGCAAUGCGGCAGUUGCUAGACUGCA [A26U U28C U32A G35U C46A] | 0.04
55 | GGCAGAGCUCAACCCAGCGUGGCAAAGUUGCUGUUGCUAGACUGCC [A14C G29U G35U] | 0.02
56 | GGCAGAGCGCAACAAAGCGUGGCAAUGUGGCUGUAGCUAGACUGCC [U9G C15A A26U G35A] | 0.1

From the RNAGym collection of RNA variant scans (doi:10.7554/elife.90254)
